Assay results reported in PubChem BioAssay AID360 (National Center for Advancing Translational Sciences (NCATS), 2006).
Hit rate of the full screen: of about 48,000 compounds, about 550 (1.1%) were called active. About 4% were inconclusive and are not listed. Cut-off read from the data, not from the text of the source: active = potency below about 15 µM; inconclusive = mostly about 16 µM to 33 µM; inactive = weaker than that. Some of the results follow.

Target: Lysosomal acid glucosylceramidase (Homo sapiens) (UniProt P04062)
Experiment: Glucocerebrosidase;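 note: the screen sought inhibitors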
Details: purified enzyme, resorufin glucoside fluorescence (screen aimed at inhibitors), 20 min
Description: NCGC Assay Overview: Beta-glucocerebrosidase catalyzes the hydrolysis of beta-glucocerebroside to glucose and ceramide. The inherited deficiency of beta-glucocerebrosidase results in Gaucher disease, which is characterized by a wide variety of symptoms including hepatosplenomegaly, anemia, thrombocytopenia, bony lesions and bone marrow infiltration with characteristic storage cells, known as Gaucher cells. There are also forms of the disorder affecting the central nervous system. Patients with the same genotypes can manifest with diverse clinical presentations and it is believed that improper folding and trafficking of beta-glucocerbrosidase may contribute to the phenotypes observed. Low molecular weight molecules, acting as chaperones, may potentially restore trafficking of misfolded beta-glucocerebrosidase from the endoplasmic reticulum to the lysosomes, thereby enhancing functional lysosomal beta-glucocerebrosidase activity. Using normal beta-glucocerebrosidase, an assay was developed to screen for small molecule inhibitors that could potentially act as molecular chaperones on the mutant forms [developed with NIH investigator Dr. Ellen Sidransky's laboratory]. Two pro-fluorescent substrates were chosen for two screens against a small molecule library. One beta-glucocerebrosidase assay used Resorufin beta-D-Glucopyranoside (Marker Gene Technology Inc.), generating a red fluorescent product. The second assay used Fluorescein di-beta-D-Glucopyranoside, generating a blue fluorescent product. […] The IC50 values of Conduritol B Epoxide, a known glucocerebrosidase inhibitor, were determined to be 87.5 uM and 117 uM, respectively. The use of two difference pro-fluorescent substrates in the screens helped to eliminate false positives. All compounds were screened in a titration series resulting in AC50s (e.g., IC50s or EC50s).
NCGC Assay Protocol Summary: Both enzyme and substrate were diluted in buffer composed of 50mM citric acid/KH2PO4, 10mM sodium taurocholate and 0.01% tween-20 at pH 5.9. The final concentration of the enzyme was 0.2 nM in both assays. The compound library was titrated in 7 to 15 concentrations for the primary screens with a final concentration ranging from 0.6 nM to 50 uM. This particular assay protocol is for the "red" substrate, and it was performed in 1536-well plate format as follows: Red fluorescence substrate assay: 2 uL enzyme 23 nL compound 1 uL substrate (final concentration of 30 uM) Incubate at room temperature (RT) for 20 minutes Read the plate in Viewlux plate reader (Ex=548(7) and Em=600(10)).
Potency is the fitted concentration of half-maximal effect.

UniProt P04062, sequence (P04062 whole entry, looked up): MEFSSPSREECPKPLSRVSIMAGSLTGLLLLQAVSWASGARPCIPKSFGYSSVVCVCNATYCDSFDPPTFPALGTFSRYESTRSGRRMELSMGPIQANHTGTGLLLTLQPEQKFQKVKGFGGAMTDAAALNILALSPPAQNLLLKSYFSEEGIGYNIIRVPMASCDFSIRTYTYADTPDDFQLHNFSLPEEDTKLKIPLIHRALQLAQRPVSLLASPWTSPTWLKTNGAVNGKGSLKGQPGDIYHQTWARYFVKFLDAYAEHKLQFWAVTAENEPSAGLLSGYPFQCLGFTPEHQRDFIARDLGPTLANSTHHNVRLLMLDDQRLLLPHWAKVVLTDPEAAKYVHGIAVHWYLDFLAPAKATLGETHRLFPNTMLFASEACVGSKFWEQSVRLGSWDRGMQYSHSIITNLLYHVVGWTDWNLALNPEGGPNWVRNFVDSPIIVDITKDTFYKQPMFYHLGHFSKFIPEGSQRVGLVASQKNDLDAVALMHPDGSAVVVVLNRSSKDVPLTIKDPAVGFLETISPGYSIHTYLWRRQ

Q: Which Potency does the source give for `CCOC(=O)NC1C=CS(=O)(=O)C1` (stereo not given) here?
A: inactive: > 76.9 µM

Q: For `Nc1cccc(S(=O)(=O)c2cccc(N)c2)c1`, which Potency is on record?
A: inactive: > 76.9 µM

Q: How did the Potency turn out when `CCN1CCN(S(=O)(=O)c2ccc(S(=O)(=O)NCC3CCCO3)cc2)CC1` (stereo not given) was run?
A: inactive: > 76.9 µM

Q: For `Cc1oc(C)c(C(=O)NCCCC(=O)O)c1C(=O)NCCCC(=O)O`, which Potency is on record?
A: inactive: > 76.9 µM

Q: `CCOC(=O)C1CCCN(C(=O)Nc2cccc(Cl)c2)C1` (stereo not given) was tested. Which Potency did it give?
A: inactive: > 76.9 µM

Q: `CCOC(=O)c1c(NC(=O)CSc2nnc(CN3CCOCC3)n2C)sc2c1CCCC2` was tested. Which Potency did it give?
A: inactive: > 76.9 µM

Q: How did the Potency turn out when `CN(Cc1nc(-c2ccncc2)no1)S(=O)(=O)c1ccc(Cl)cc1` was run?
A: inactive: > 76.9 µM

Q: How did the Potency turn out when `O=S(=O)(c1ccc2nc(COc3ccc(Cl)cc3Cl)[nH]c2c1)N1CCOCC1` was run?
A: inactive: > 76.9 µM

Q: Which Potency does the source give for `O=C(c1ccc(N2CCCC2=O)cc1)N1CCN(c2ccccc2)CC1` here?
A: inactive: > 76.9 µM

Q: With `N#Cc1cn(-c2ccccc2)nc1-c1ccc2c(c1)OCCO2` as the compound, how does the Potency read?
A: inactive: > 76.9 µM

Q: With `N#CCCN(Cc1cccnc1)S(=O)(=O)c1ccc(S(=O)(=O)N2CCCCCC2)cc1` as the compound, how does the Potency read?
A: inactive: > 76.9 µM

Q: With `CN1CCCCCC1=Nc1ccccc1C#N` as the compound, how does the Potency read?
A: inactive: > 76.9 µM

Q: Which Potency does the source give for `CS(=O)(=O)Nc1ccc2c(c1)C(=O)OC2` here?
A: inactive: > 76.9 µM

Q: For `COc1ccc(CNC(=O)c2cc(-c3ccco3)on2)cc1`, which Potency is on record?
A: inactive: > 76.9 µM

Q: How did the Potency turn out when `Cc1cccc(C)c1NC(=O)CS(=O)CC(=O)NC1CCCc2ccccc21` (stereo not given) was run?
A: inactive: > 76.9 µM

Q: Which Potency does the source give for `COc1ccc2[nH]c(=O)c(CN(C(C)=O)c3cccc(C)c3)cc2c1` here?
A: inactive: > 76.9 µM

Q: How did the Potency turn out when `Fc1ccc(Cn2nnnc2C(c2cccs2)N2CCCCCC2)cc1` (stereo not given) was run?
A: inactive: > 76.9 µM

Q: Which Potency does the source give for `Cc1cc(C)cc(-n2ccnc2SCC(=O)Nc2nccs2)c1` here?
A: inactive: > 76.9 µM

Q: For `O=C(O)CSCc1nc2ccccc2s1`, which Potency is on record?
A: inactive: > 76.9 µM

Q: For `CCOC(=O)C1=C(N)Oc2cc(C)n(C)c(=O)c2C1c1ccncc1` (stereo not given), which Potency is on record?
A: inactive: > 76.9 µM

Q: How did the Potency turn out when `O=c1cc(Nc2ccc3c(c2)OCO3)[nH]c(=O)n1-c1ccc(Br)cc1` was run?
A: inactive: > 76.9 µM

Q: How did the Potency turn out when `COc1ccc2cc3cc(C(=O)NCCc4ccc(OC)c(OC)c4)oc3nc2c1` was run?
A: inactive: > 76.9 µM

Q: `c1ccc2c(c1)nnn2-c1ncnc2sc3c(c12)CCCC3` was tested. Which Potency did it give?
A: inactive: > 76.9 µM

Q: For `CCC(=O)Nc1cccc(NC(=O)c2ccc3c(c2)OCO3)c1`, which Potency is on record?
A: inactive: > 76.9 µM

Q: For `CC(=O)N1CC2(C)CN(C(C)=O)CC(C)(C1)C2`, which Potency is on record?
A: inactive: > 76.9 µM

Q: How did the Potency turn out when `O=C1CCCCCN1Cc1nnc(SCc2nc3ccccc3s2)n1-c1ccccn1` was run?
A: inactive: > 76.9 µM

Q: Which Potency does the source give for `O=C1CC(c2ccccc2)n2nc(NC(=O)c3cccnc3)nc2N1` (stereo not given) here?
A: inactive: > 76.9 µM

Q: With `Nc1cc(-c2ccccc2)ccc1O` as the compound, how does the Potency read?
A: inactive: > 76.9 µM

Q: For `O=C(CN(Cc1ccco1)C(=O)CNS(=O)(=O)c1ccc(Cl)cc1)NCc1ccc(F)cc1`, which Potency is on record?
A: inactive: > 76.9 µM

Q: Which Potency does the source give for `CCOc1ccccc1NC(=O)C1CCCN(S(=O)(=O)c2cccc3nsnc23)C1` (stereo not given) here?
A: inactive: > 76.9 µM

Q: Which Potency does the source give for `COc1cc2ccccc2cc1C(=O)Nc1ccccc1N1CCN(S(C)(=O)=O)CC1` here?
A: inactive: > 76.9 µM

Q: `C=CCn1nnc2sc3c(c2c1=O)CCC(C)C3` (stereo not given) was tested. Which Potency did it give?
A: inactive: > 76.9 µM

Q: Which Potency does the source give for `CC(=O)N1CCN(c2ccc(NCc3ccccc3)cc2)CC1` here?
A: active: 13 µM

Q: `Cn1c(CCNC(=O)c2ccccc2F)nnc1SCc1nc2ccccc2c(=O)[nH]1` was tested. Which Potency did it give?
A: inactive: > 76.9 µM

Q: `c1cncc(-c2nnc3n2CCC3)c1` was tested. Which Potency did it give?
A: inactive: > 76.9 µM

Q: Which Potency does the source give for `CCOC(=O)C1(Cc2ccccc2)NC(c2ccccc2F)C2C(=O)N(CC)C(=O)C21` (stereo not given) here?
A: inactive: > 76.9 µM

Q: `Cn1c(CN2CCCCC2)nc2cc(NC(=O)c3ccc(F)cc3)ccc21` was tested. Which Potency did it give?
A: inactive: > 76.9 µM

Q: Which Potency does the source give for `COCCn1nnnc1C(c1cc2c(C)cc(C)cc2[nH]c1=O)N1CCCCCC1` (stereo not given) here?
A: inactive: > 76.9 µM

Q: Which Potency does the source give for `O=C(CCn1nnc2ccccc21)Nc1nnc(Cc2ccccc2)s1` here?
A: inactive: > 76.9 µM

Q: For `Cc1ccc(CNC(=O)CCS(=O)(=O)c2cccc3nsnc23)cc1`, which Potency is on record?
A: inactive: > 76.9 µM

Q: Which Potency does the source give for `COCC(=O)Nc1ccccc1C(=O)Nc1ccc(OC)cc1` here?
A: inactive: > 76.9 µM

Q: For `CS(=O)(=O)N(Cc1ccco1)Cc1ccccc1Cl`, which Potency is on record?
A: inactive: > 76.9 µM

Q: Which Potency does the source give for `CC(=O)Nc1cccc(NC(=O)C2CC(=O)N(c3ccc(C)cc3)C2)c1` (stereo not given) here?
A: inactive: > 76.9 µM

Q: How did the Potency turn out when `CCN(CC)S(=O)(=O)c1ccc(C(=O)NCCc2cc3c(OC)ccc(OC)c3[nH]c2=O)cc1` was run?
A: inactive: > 76.9 µM

Q: With `NC(=O)NC(=O)COC(=O)CCCc1c[nH]c2ccccc12` as the compound, how does the Potency read?
A: inactive: > 76.9 µM
